Experiments:
[1] = molecular target: T1, hIL-1R-I (Homo sapiens, UniProt P14778); experiment: Biacore kinetic screening of Z-ABD periplasmic extracts captured on anti-ABD antibody; type: binding; conditions: differs only in position X5 of BM (isoleucine vs alanine) (Example 8)
T1 construct: purchased R&D Systems 269-1R/CF
T1 sequence (P14778 18-569): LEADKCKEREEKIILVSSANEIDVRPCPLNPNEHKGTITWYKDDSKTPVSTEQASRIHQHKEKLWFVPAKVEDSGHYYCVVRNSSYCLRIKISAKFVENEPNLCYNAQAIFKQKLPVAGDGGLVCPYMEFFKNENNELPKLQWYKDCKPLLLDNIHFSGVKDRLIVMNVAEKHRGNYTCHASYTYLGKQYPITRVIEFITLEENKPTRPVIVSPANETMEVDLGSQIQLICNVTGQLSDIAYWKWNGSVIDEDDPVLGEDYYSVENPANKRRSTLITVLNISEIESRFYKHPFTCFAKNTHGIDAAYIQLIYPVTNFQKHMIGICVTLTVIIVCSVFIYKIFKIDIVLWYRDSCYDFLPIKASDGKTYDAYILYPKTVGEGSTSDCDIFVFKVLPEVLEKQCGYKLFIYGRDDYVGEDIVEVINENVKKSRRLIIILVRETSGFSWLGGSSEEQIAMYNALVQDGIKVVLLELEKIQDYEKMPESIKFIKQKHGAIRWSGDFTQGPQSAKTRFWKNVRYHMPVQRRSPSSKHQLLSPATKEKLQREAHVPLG
Protocol: The binding of Z variants to human IL-1R-I was analyzed in a kinetic screening using a Biacore T200 instrument. A polyclonal goat anti-ABD antibody (goat anti-ABD) was immobilized on CM5 chip surfaces basically as described for other proteins in Example 2. For the kinetic screening, analytes were injected in two steps. First, a Z-ABD (ABD001, SEQ ID NO:1660) periplasmic extract was injected over the surface at 5 μl/min for 1 min. As a second step, 100 nM hIL-1R-I was injected at 30 μl/min for 2 min, followed by 2 min of dissociation in running buffer HBS-EP. Glycine-HCl pH 2.0 (cat. no. BR100355, GE Healthcare) was used for regeneration of the antibody surfaces between the cycles. The temperature of the assay was 25° C. Before performing the kinetic analyses, the signal from 100 nM hIL-1R-I injected over a reference surface containing goat anti-ABD but no Z-ABD sample was subtracted from the sensorgram of Z-ABD binding to hIL-1R-I. Rough screening affinities (KD) were calculated from the reference subtracted 100 nM hIL-1R-I response using a 1:1 binding model of the BiaEvaluation software 4.1 (GE Healthcare). […]
The binding of Z variants to human IL-1R-I was analyzed in a kinetic screening, using a Biacore 2000 instrument, essentially as described in Example 4, but with the exception that Z-ABD (ABD001, SEQ ID NO:1660) periplasmic extracts were injected during 2 min. […]

[2] = tested on: TF-1 cells; experiment: In vitro IL-1β neutralization assay (TF-1 cell assay); type: cell-based; conditions: His6-Z polypeptides, IL-1β inhibition in TF-1 cell assay, Table 20 (Example 9)
Protocol: The TF-1 cell line proliferates in response to many different cytokines including IL-1β. This cell line was used to assess the ability of primary IL-1R1 binders to inhibit IL-1β actions. TF-1 cells were maintained in RPM11640 with L-glutamine (Lonza) supplemented with 10% FCS (Gibco), Penicillin-Streptomycin (Lonza) and 2 ng/ml rhGM-CSF (R&D Systems). Prior to use, cells were washed twice in RPM11640 without rhGM-CSF. Cells were then counted and dispensed into 96 well flat bottomed plates at a density of 3×10^4 cells per well. In separate plates, serial dilutions of the inhibitory binders; His6-tagged IL-1R-I binding Z variants, with a concentration range of 400-0.1 nM, or the IL-1R-I binding protein Kineret (anakinra, Sobi), with a concentration range of 0.3-0.0003 nM, were incubated in the presence of 0.6 nM IL-1β (PeproTech). The pre-mixed complexes of the Z variant polypeptides and IL-13 were transferred to wells containing TF-1 cells. The cells were stimulated for 72 h at 37° C. in a humidified 5% CO2 atmosphere. During the last four hours of incubation, 19 μl of 2× diluted CCK-8 (Fluka, Sigma Aldrich), was added per well to determine the proliferative responses. The absorbance was measured at 450 nm using a microplate reader (Victor3, Perkin Elmer). The data on cell growth was assessed by non-linear regression to a four-parameter dose-response curve, and the half maximal inhibitory concentration (IC50) was determined using GraphPadPrism program.
(§1) His6-tagged IL-1R-I specific Z variants were tested for their inhibitory capacity in the TF-1 cell assay. The assay was run as described in Example 2. The data on cell growth was assessed by non-linear regression to a four-parameter dose-response curve, and IC50 values were determined using GraphPadPrism program. His6-tagged Z12967 was included for comparison.
as §1, with “Z12967, Z16065, Z16163 and Z18557 were” for “Z12967 was”

[3] = Circular dichroism (CD) spectroscopy analysis, melting temperature and refolding; type: physicochemical; conditions: His6-tagged Z variants, CD variable temperature measurement, Table 21

affinity relative to Z16065 [1]: three times higher affinity
IC50 [2]: 0.4 nM
B1: Z18814: Z variant differing from Z16065 only in position X5 of the BM (isoleucine) (protein)
chain: AQHDEALEVDAKYAKEVEEIQMEIFALPNLTRRQYTAFIRKLLDDPSQSSELLSEAKKLNDSQAPKVDYVLAEAKVLANRELDKYGVSDYYKNLINNAKTVEGVKALIDEILAALPYVPG
Melting temperatures (Tm) [3]: 61 °C
